In PubChem BioAssay AID1745853 (National Center for Advancing Translational Sciences (NCATS), 2022) one finds activity change, negative = inhibition data, which are given here for 29 compounds.

SMILES strings stand for the structures. The list shows a part of the results. These are further read-outs of the screen, such as a control signal, another cell line or another target. No call is given for them.

Holding throughout (experiment): Primary Screen for Target Class Profiling of Small Molecule Inhibitors of Methyltransferases
Assay [1] addresses Glycine N-methyltransferase (Homo sapiens) (UniProt Q14749). The following applies: purified enzyme, MTase-Glo SAH luminescence; measured here: GNMT inhibition; at 40 µM; stronger effect = lower value. The method in brief:
(§1)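 Each enzyme was assayed with SAM and its substrate. SAH formation detected by MTase-Glo luminescence; single-point 40 uM screen[…].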

For assay [2], the target named is Guanidinoacetate N-methyltransferase (Homo sapiens) (UniProt Q14353). As to conditions: purified enzyme, MTase-Glo SAH luminescence; measured here: GAMT inhibition; at 40 µM; stronger effect = lower value. The method in brief: as §1
Assay [3] concerns the target Histamine N-methyltransferase (Homo sapiens) (UniProt P50135). As to conditions: purified enzyme, MTase-Glo SAH luminescence; measured here: HNMT inhibition; at 40 µM; stronger effect = lower value. The method in brief: as §1
Assay [4] deals with Nicotinamide N-methyltransferase (Homo sapiens) (UniProt P40261). The following applies: purified enzyme, MTase-Glo SAH luminescence; measured here: NNMT inhibition; at 40 µM; stronger effect = lower value. The method in brief:
as §1

Assay [5] concerns the target Phenylethanolamine N-methyltransferase (Homo sapiens) (UniProt P11086). The following applies: purified enzyme, MTase-Glo SAH luminescence; measured here: PNMT inhibition; at 40 µM; stronger effect = lower value. The method in brief:
as §1
On the % scale 0 is the no-effect control and ±100 the full control effect.

As to `CCc1cc2c(cc3n2CC(C)(C(=O)NC2CCCCC2)N(CCN2CCOCC2)C3=O)s1` (stereo not given), the activity change, negative = inhibition in assay [1] was -2.96%; in assay [2], 1.45%; in assay [3] it was -2.33%; in assay [4], -5.82%; in assay [5], 0.432%.
For `CCc1ccc(N2C(=O)c3c(C(=O)OC)ncn3CC2(C)C(=O)NCCCOC(C)C)cc1` (stereo not given), the activity change, negative = inhibition in assay [1] worked out at 1.47%; in assay [2] it was 2.42%; in assay [3], 15.8%; in assay [4], 9.86%; in assay [5] it was 10.2%.
For `CSCC[C@H](N)C(=O)N1CCC2(CCC(=O)N(Cc3ccccc3)C2)CC1` the same measures were -5.56%, -1.13%, -0.749%, -8.56% and 1.68%.
Consider `CCN1C(=O)c2cc(C(=O)NCCc3cccs3)nn2CC1(C)C(=O)NC1CCCC1` (stereo not given), for which the activity change, negative = inhibition was 4.68% in assay [1]; 4.66% in assay [2]; -1.69% in assay [3]; 4.33% in assay [4]; 3.2% in assay [5].
For the compound `Cc1noc(-c2ccc(-c3ccc(CC(=O)O)cc3)cc2)c1NC(=O)O[C@H](C)c1ccccc1Cl`, the activity change, negative = inhibition in assay [1] was -8.73%; in assay [2], 13.8%; in assay [3], 4.77%; in assay [4] it was -22.1%; in assay [5], 1.12%.
Consider `CC(C)C(=O)c1c(C(C)C)nn2ccccc12`, for which the activity change, negative = inhibition was -1.38% in assay [1]; 12% in assay [2]; 2.57% in assay [3]; -4.59% in assay [4]; 7.15% in assay [5].
Turning to `Cn1cccc1C(=O)N1CC[C@H](CO)[C@H](NC(=O)C2CC2)C1`, the activity change, negative = inhibition was -6.84% in assay [1]; -9.94% in assay [2]; -5.16% in assay [3]; -16.1% in assay [4]; -9.7% in assay [5].
As to `CC1(C)CC(=O)N(CCCCN2CCN(c3ncccn3)CC2)C(=O)C1`, the activity change, negative = inhibition is 2.41% in assay [1]; 4.3% in assay [2]; 11.2% in assay [3]; -10.2% in assay [4]; 3.56% in assay [5].
`Cc1ccc(NC(=O)CSc2nnc3n(CC(C)C)c(=O)c4ccc(Cl)cc4n23)c(Cl)c1`: the activity change, negative = inhibition is -6.47% in assay [1]; 0% in assay [2]; 4.5% in assay [3]; -9.73% in assay [4]; -2.12% in assay [5].
As for `O=C(CCn1ccc2cc(S(=O)(=O)N3CCCCC3)ccc21)N1CCN(c2ccccc2)CC1`, the activity change, negative = inhibition in assay [1] is -1.13%; in assay [2], 3.35%; in assay [3], -4.69%; in assay [4], -1.98%; in assay [5] it was -0.443%.
As for `CC1(C(=O)NC2CCCCCC2)Cn2c(nc3ccccc32)C(=O)N1CCN1CCOCC1` (stereo not given), the activity change, negative = inhibition in assay [1] amounted to 2.61%; in assay [2], 0.562%; in assay [3], 5.1%; in assay [4], 5.94%; in assay [5], 0.1%.
The matching figures for `Cc1ccccc1NC(=O)CSc1nnc2n(Cc3ccccc3)c(=O)c3ccccc3n12`: -8.09%, -3.64%, 2.16%, -10.5% and -3.45%.
With `CCOC(=O)c1ccc(NS(=O)(=O)c2ccc3[nH]c4c(c3c2)CCCC4)cc1`, the activity change, negative = inhibition in assay [1] is -1.7%; in assay [2], 4.88%; in assay [3] it was -0.985%; in assay [4], -6.36%; in assay [5], 0.384%.
On to `CC(C(=O)NCc1ccccc1F)n1ccc2cc(S(=O)(=O)N3CCCC3)ccc21` (stereo not given), for which the activity change, negative = inhibition in assay [1] was 0.778%; in assay [2], 3.43%; in assay [3] it was -1.13%; in assay [4], -8.88%; in assay [5] it was -3.52%.
The matching figures for `CC(C(=O)NCc1ccco1)n1ccc2cc(S(=O)(=O)N3CCCC3)ccc21` (stereo not given): 4.21%, 1.35%, 3.8%, 5.4% and 1.99%.
Turning to `CC(C)C[C@@H]1NC(=O)[C@@H]2C[C@@]34C[C@@H]5[C@@]6(C)CCCC(C)(C)C6CC[C@@]5(C)N(c5ccccc53)[C@H]4N2C1=O` (stereo not given in full), the activity change, negative = inhibition was 4.26% in assay [1]; 8.85% in assay [2]; 7.2% in assay [3]; -28.2% in assay [4]; -0.832% in assay [5].
On to `COc1ccc(-c2cc3n(n2)CC(C)(C(=O)NCc2ccccc2OC)N(Cc2ccccc2C)C3=O)cc1` (stereo not given), for which the activity change, negative = inhibition was -0.017% in assay [1]; 3.6% in assay [2]; 0.335% in assay [3]; -1.22% in assay [4]; -2.08% in assay [5].
Turning to `CCOCCCNC(=O)c1cc2n(n1)CC(C)(C(=O)NCc1ccccc1)N(C)C2=O` (stereo not given), the activity change, negative = inhibition in assay [1] was 2.44%; in assay [2], -10.8%; in assay [3] it was 5.57%; in assay [4], -0.466%; in assay [5] it was -2.6%.
In the case of `Nc1nc(N)c2nc(-c3ccccc3)c(N)nc2n1`, the activity change, negative = inhibition in assay [1] is -12.2%; in assay [2], -1.5%; in assay [3], -4.97%; in assay [4] it was -10.5%; in assay [5], -1.2%.
As to `C[S+](=O)([O-])N1CCC(Cn2ccc3c(N4CCOCC4)nc(-c4cccc5[nH]ncc45)cc32)CC1`, the activity change, negative = inhibition was -63.2% in assay [1]; -45.4% in assay [2]; -27.1% in assay [3]; -21.9% in assay [4]; -74% in assay [5].
Turning to `CC(C)c1noc(-c2cn(C3CCN(C(=O)COc4ccccc4)CC3)nn2)n1`, the activity change, negative = inhibition in assay [1] is -6.26%; in assay [2], -10.4%; in assay [3], -3.21%; in assay [4], -15%; in assay [5], -20.1%.
For the compound `O=c1c2c(CO)c(-c3ccccc3)nn2ccn1CCOc1ccccc1`, the activity change, negative = inhibition in assay [1] is -10.8%; in assay [2] it was -17.4%; in assay [3] it was -8.33%; in assay [4], -10.2%; in assay [5], -11.6%.
Consider `COc1ccccc1N1CCN(C(=O)CCc2nnc3n(CCc4ccccc4)c(=O)c4ccccc4n23)CC1`, for which the activity change, negative = inhibition in assay [1] is -4.59%; in assay [2], 0%; in assay [3], -1.42%; in assay [4], -7.42%; in assay [5], -4.28%.
`O=C1c2cncnc2OCC(CNC(=O)C2(c3ccccc3)CC2)N1Cc1ccccc1` (stereo not given): the activity change, negative = inhibition was -8.16% in assay [1]; 1.17% in assay [2]; -5.1% in assay [3]; -20% in assay [4]; -4.12% in assay [5].
For `CC(C)=CCC[C@](C)(O[C@@H]1O[C@H](CO[C@@H]2OC[C@@H](O)[C@H](O)[C@H]2O)[C@@H](O)[C@H](O)[C@H]1O)[C@H]1CC[C@]2(C)[C@@H]1[C@H](O)C[C@@H]1[C@@]3(C)CC[C@H](O[C@@H]4O[C@H](CO)[C@@H](O)[C@H](O)[C@H]4O[C@@H]4O[C@H](CO)[C@@H](O)[C@H](O)[C@H]4O)C(C)(C)[C@@H]3CC[C@]12C` the same measures were 0.168%, 17.5%, 13%, 7.62% and 8.95%.
Regarding `CC(C)(O)CCc1cccc(C(=O)NCCCc2ccccn2)c1`, the activity change, negative = inhibition in assay [1] was -3.13%; in assay [2], -0.996%; in assay [3], -0.201%; in assay [4], -5.9%; in assay [5], -1.76%.
In the case of `CCCC1c2cccn2CCN1C(=O)Nc1cc(C)ccc1C` (stereo not given), the activity change, negative = inhibition is -6.46% in assay [1]; 3.54% in assay [2]; -22.2% in assay [3]; -4.09% in assay [4]; -2.6% in assay [5].
As for `Cc1ccc(C)c(C(=O)Cn2nc3n(CC(C)C)c(=O)c4ccccc4n3c2=O)c1`, the activity change, negative = inhibition was -0.202% in assay [1]; 4.99% in assay [2]; 3.67% in assay [3]; -5.36% in assay [4]; 0.381% in assay [5].
With `O=C(N[C@H]1CCN2C(=O)c3cc(/C=C/c4ccccc4)ccc3NC(=O)[C@H]12)C1CCCC1`, the activity change, negative = inhibition in assay [1] was -11.4%; in assay [2], -11.1%; in assay [3], -4.91%; in assay [4] it was -24%; in assay [5], -14.7%.
